According to the supplement of paper PMC9334596:
Several values for one entry are separate records, joined by “and”; a condition that tells them apart may be missing. Equal entries are not always repeated. ± gives the standard deviation of the averaged measurements. Over roughly 5,300 compounds, “PER2::LUC luminescence relative to vehicle control” has its median near 0.96; the highest 2% begin near 1.3. The list shows a part of the results.

Test system: mPer2Luc MEF
Assay: PER2::LUC luminescence relative to vehicle control (fold of vehicle); higher = higher PER2::LUC reporter signal
Details: 10 µM
Summary of the method: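 In 384-well plates, ~3000 mPer2Luc reporter mouse embryonic fibroblasts per well were cultured in DMEM with 10% FBS at 37 °C and 5% CO2 for 48 h before compounds from commercial libraries were added at 10 μM. ONE-Glo luciferase readings were taken 24 h and 30 h after treatment. Each value is PER2::LUC luminescence given as fold of vehicle control.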

| Compound | PER2::LUC luminescence (time after treatment 24 h) | PER2::LUC luminescence (time after treatment 30 h) |
| --- | --- | --- |
| CNCc1ccc(C)c(NC(=O)c2ccc(Nc3nc(-c4ccccc4)c4ccccc4n3)cc2)c1 | 0.439 | 0.475 |
| CCCCCCCCCCCCCCCCCCNC(=O)OCC(COP(=O)([O-])OCC[n+]1ccsc1)OC (stereo unspecified) | 0.987 | 0.869 |
| COc1cc(CCc2cc(NC(=O)c3ccc(N4CC(C)NC(C)C4)cc3)n[nH]2)cc(OC)c1 (stereo unspecified) | 0.561 | 0.448 |
| CC(C)=CCC[C@](C)(O)[C@H]1CC[C@]2(C)[C@@H]1[C@H](O)C[C@@H]1[C@@]3(C)CC[C@H](O)C(C)(C)[C@@H]3[C@@H](O)C[C@]12C | 1.05 | 0.998 |
| O=C(O)C1(c2ccc(-c3ccc(Cl)c(Cl)c3)c(F)c2)CC1 | 1.14 | 1.11 |
| O=C1Nc2ccc(Cl)cc2[C@@](C#CC2CC2)(C(F)(F)F)O1 | 1.09 | 1.06 |
| c1ccc2sc(N3CCN(Cc4ccc5c(c4)OCO5)CC3)nc2c1 | 1.06 | 0.947 |
| NCCCS(=O)(=O)O | 1.03 and 1.06 and 1.09 | 1.11 and 1.02 and 0.815 |
| Cc1c(S(=O)(=O)O)oc2c1C(=O)C(=O)c1c-2ccc2c1CCCC2(C)C | 0.998 | 0.889 |
| N#C/C(=C/c1ccc(O)c(O)c1)C(=O)NCc1ccccc1 | 0.992 | 1.05 |
| CC(C)[C@H](O)C(=O)N[C@@H](C)C(=O)N[C@@H]1C(=O)N(C)CCc2ccccc21 | 1.05 and 0.967 | 0.937 and 0.922 |
| Cc1cn(-c2cc(NC(=O)c3ccc(C)c(Nc4nccc(-c5cnccn5)n4)c3)cc(C(F)(F)F)c2)cn1 | 1.05 | 1.13 |
| Nc1nc(/C(=C/CC(=O)O)C(=O)N[C@@H]2C(=O)N3C(C(=O)O)=CCS[C@H]23)cs1 | 0.903 | 0.975 |
| O=C(Nc1ccc(Cl)cc1CN1C(=O)c2ccccc2C1=O)c1ccccc1O | 1.03 | 1.02 |
| Nc1ccc(/N=N/c2ccccc2)c(N)n1 | 1.76 | 1.7 |
| C[C@H](N[C@@H](CCc1ccccc1)C(=O)O)C(=O)N1Cc2ccccc2C[C@H]1C(=O)O | 0.982 | 0.917 |
| CCc1cc(Cl)c(OC)c(C(=O)NC[C@@H]2CCCN2CC)c1O | 0.882 | 0.897 |
| CC1=CC(=O)C2=C(C)CC[C@@H]3[C@H](OC(=O)[C@H]3C)[C@@H]12 | 0.959 | 0.978 |
| CN(C)CCOC(=O)C(c1ccccc1)C1(O)CCCC1 (stereo unspecified) | 0.923 | 0.94 |
| O=C(/C=C/c1ccccc1)c1ccc(O)cc1 | 1.33 | 1.48 |
| CN1CCC(=C2c3ccccc3CCn3c(C=O)cnc32)CC1 | 0.987 | 0.922 |

| Compound | PER2::LUC luminescence (time after treatment 24 h) | PER2::LUC luminescence (time after treatment 30 h) |
| --- | --- | --- |
| O=C(Nc1ccc(CN2CCOCC2)cc1)c1ccc(-c2cccc(Cl)c2)o1 | 0.955 and 0.883 | 0.965 and 0.868 |
| Nc1[nH]c(=O)ncc1F | 0.87 | 1.01 |
| CCC(=O)O[C@]1(C(=O)SCF)[C@H](C)C[C@H]2[C@@H]3C[C@H](F)C4=CC(=O)C=C[C@]4(C)[C@@]3(F)[C@@H](O)C[C@@]21C | 0.722 | 1.23 |
| CCN(CC)c1ccc(/C=N/NC(=O)c2ccc(O)cc2)cc1 | 0.789 | 0.794 |
| O=C(NCc1nc2ccccc2c(=O)n1-c1ccc(F)cc1)Nc1ccc(Cl)c(C(F)(F)F)c1 | 1 | 0.929 |
| N=C(N)NCCCCNC(=N)N | 0.976 | 1.09 |
| C[C@@H](O)[C@H](NC(=O)c1ccc(C#Cc2ccc(CN3CCOCC3)cc2)cc1)C(=O)NO | 1.32 | 1.62 |
| Nc1ccn([C@H]2C[C@H](O)[C@@H](CO)O2)c(=O)n1 | 1.11 | 0.96 |
| O=C1[C@H]2CCCC[C@H]2C(=O)N1CCCCN1CCN(c2nsc3ccccc23)CC1 | 0.834 | 0.901 |
| C[C@]12C=CC(=O)N[C@@H]1CC[C@@H]1[C@@H]2CC[C@]2(C)[C@@H](C(=O)Nc3cc(C(F)(F)F)ccc3C(F)(F)F)CC[C@@H]12 | 0.628 | 0.84 |
| Clc1cccc(Cl)c1NC1=NCCN1 | 0.971 and 1.02 | 0.922 and 1.17 |
| CN(C)S(=O)(=O)c1ccc2c(c1)/C(=C/c1cc3c([nH]1)CCCC3)C(=O)N2 | 1.2 | 1.06 |
| CN1CCN(C2Cc3ccccc3Sc3ccc(Cl)cc32)CC1 (racemic) | 0.763 | 0.867 |
| CO[C@H]1/C=C/O[C@@]2(C)Oc3c(C)c(O)c4c(O)c(c5c(nc6cc(C)ccn65)c4c3C2=O)NC(=O)/C(C)=C\C=C\[C@H](C)[C@H](O)[C@@H](C)[C@@H](O)[C@@H](C)[C@H](OC(C)=O)[C@@H]1C | 1.08 | 1.05 |
| C=CCN(C)CCCCCCOc1ccc(C(=O)c2ccc(Br)cc2)c(F)c1 | 0.566 | 0.602 |
| Cn1ncnc1[C@H]1c2n[nH]c(=O)c3cc(F)cc(c23)N[C@@H]1c1ccc(F)cc1 | 1.03 | 0.792 |
| CC1(C)CC2C1CC[C@]1(C)CCC3C(C(=O)O)CC(=O)O[C@@]32C1 (stereo partly specified) | 0.927 | 0.931 |
| Cc1cc(O)c(C(=O)N[C@@H](C(=O)N[C@@H]2C(=O)N3C(C(=O)O)=C(CSc4nnnn4C)CS[C@H]23)c2ccc(O)cc2)cn1 | 0.951 | 0.982 |
| COc1ccc(-c2nc(N3CCOCC3)c3sc(CN(C)c4ncc(C(=O)NO)cn4)cc3n2)cn1 | 0.37 | 0.325 |
| CC(=O)O[C@]1(C(C)=O)CC[C@H]2[C@@H]3C=C(Cl)C4=CC(=O)CC[C@]4(C)[C@H]3CC[C@@]21C | 0.646 | 1.06 |
| CN1CCN(CCc2ccc(Cl)c(Cl)c2)CC1 | 0.814 | 0.814 |

| Compound | PER2::LUC luminescence (time after treatment 24 h) | PER2::LUC luminescence (time after treatment 30 h) |
| --- | --- | --- |
| COc1ccc(Cl)c(Nc2nc3ccccc3nc2NS(=O)(=O)c2cccc(NC(=O)C(C)(C)N)c2)c1 | 0.661 | 0.598 |
| CCN(CC)C(C)CN1c2ccccc2Sc2ccccc21 (stereo unspecified) | 1.04 | 0.978 |
| CCCNC(=O)NS(=O)(=O)c1ccc(Cl)cc1 | 0.946 | 0.842 |
| CN(C)C(=N)NC(=N)N | 0.558 | 0.95 |
| COc1c(C)cnc(Cn2cnc3c(Cl)nc(N)nc32)c1C | 0.088 | 0.064 |
| COc1ccc2c(Oc3ccc(NC(=O)c4c(C)n(CC(C)(C)O)n(-c5ccccc5)c4=O)nc3)ccnc2c1 | 0.972 | 0.785 |
| CC(=O)OC/C=C(\C)CC/C=C(\C)CC/C=C(\C)CC/C=C(\C)CC/C=C(\C)CC/C=C(\C)CC/C=C(\C)CC/C=C(\C)CCC=C(C)C | 1.01 | 1.01 |
| c1ccc2c(CCNc3ccc(Nc4ccncc4)cc3)c[nH]c2c1 | 0.663 and 0.608 | 0.599 and 0.503 |
| NCCCCCC(=O)O | 0.903 and 0.953 | 1.09 and 0.91 |
| CC(C)CCNC(=O)[C@H](CC(C)C)NC(=O)[C@H]1O[C@@H]1C(=O)O | 0.877 | 0.938 |
| CC1=C(C)C(=O)C(C(CCCCCC(=O)O)c2ccccc2)=C(C)C1=O (stereo unspecified) | 1.06 | 0.847 |
| CNCCc1ccccn1 | 0.937 and 0.834 | 0.921 and 0.911 |
| Cc1nc2c([nH]1)-c1ccccc1N(C(=O)c1ccc(NC(=O)c3ccccc3-c3ccccc3)cc1)CC2 | 0.887 | 0.918 |
| CC=CC(=O)N(CC)c1ccccc1C | 1.29 | 1.27 |
| CC1CC2C3CCC4=CC(=O)C=CC4(C)C3(F)C(O)CC2(C)C1C(=O)CO (stereo unspecified) | 0.497 | 0.946 |
| CCCCCCCCCCCCCCCC(=O)OC[C@H](O)[C@H]1OC(=O)C(O)=C1O | 1 and 0.772 | 0.992 and 0.863 |
| Cc1csc(-c2nnc(Nc3ccc(Oc4ncccc4-c4ccnc(N)n4)cc3)c3ccccc23)c1 | 0.841 and 0.763 | 0.842 and 0.766 |
| Nc1nc2c(ncn2COC(CO)CO)c(=O)[nH]1 | 0.923 | 0.92 |
| O=C(c1ccc(F)cc1)C1CCN(CCn2c(=O)[nH]c3ccccc3c2=O)CC1 | 1.08 and 0.878 | 0.953 and 0.76 |
| O=C(CCc1ccccc1)N1CCC(O)(Cn2cnc3cc(Cl)ccc3c2=O)CC1 | 0.949 | 0.916 |
| C[C@H]1[C@H](C)CC[C@]2(C(=O)O)CC[C@]3(C)C(=CC[C@@H]4[C@@]5(C)CC[C@H](O)C(C)(C)[C@@H]5CC[C@]43C)[C@H]12 | 1.02 | 0.982 |

| Compound | PER2::LUC luminescence (time after treatment 24 h) | PER2::LUC luminescence (time after treatment 30 h) |
| --- | --- | --- |
| Oc1cc2c(cc1O)C1c3ccc(O)c(O)c3OCC1(O)C2 (stereo unspecified) | 0.873 | 0.854 |
| NC1(C(=O)O)CC1 | 0.963 | 0.924 |
| COc1ccc(-c2cc(=O)c3c(O)c(OC)c(OC)c(OC)c3o2)cc1 | 1.03 | 1.16 |
| CCN(CC)C(=O)c1ccc(O)c(OC)c1 | 1.06 and 0.997 | 0.881 and 0.818 |
| CC(=O)[C@@]1(O)CC[C@H]2[C@@H]3CCC4=CC(=O)CC[C@]4(C)[C@H]3CC[C@@]21C | 0.497 | 0.559 |
| Nc1nc(O)c2[nH]nnc2n1 | 0.306 | 0.264 |
| Nc1nccc(Oc2ccc(NC(=O)c3c[nH]cc(-c4ccc(F)cc4)c3=O)cc2F)c1Cl | 0.834 ± 0.27 | 0.643 ± 0.26 |
| Cc1nc2c(-c3cnc(N)nc3)nc(N3CCOCC3)nc2n1C(C)C | 0.117 | 0.125 |
| CN(C)CCOC(c1ccccc1)c1ccccc1.Cn1c(=O)c2[nH]c(Cl)nc2n(C)c1=O | 0.905 | 0.804 |
| CN(CCCN1c2ccccc2CCc2ccccc21)CC(=O)c1ccc(Cl)cc1 | 0.756 | 0.935 |
| CCS(=O)(=O)N1CC(CC#N)(n2cc(-c3ncnc4[nH]ccc34)cn2)C1 | 1.09 and 0.875 | 1.24 and 1.03 |
| CCN(CC)c1ccc2cc(C(=O)O)c(=O)oc2c1 | 1.06 | 1.04 |
| CSC(=N)N | 1.05 | 0.748 |
| COc1cc(C)c(C(=O)Oc2cc(C)c(C(=O)O)c(O)c2C)c(OC)c1C | 0.801 | 0.798 |
| Cc1cc(C)c(S(=O)(=O)N(CCc2cccc(Br)c2)Cc2ccc(-c3cccc(S(C)(=O)=O)c3)cc2)c(C)c1 | 0.972 | 0.814 |
| O=C1NCC2(CCN(CCc3ccccc3)CC2)O1 | 0.308 | 0.544 |
| Clc1ccc2c(c1)CCc1cccnc1C2=C1CCNCC1 | 0.761 and 0.708 and 0.621 | 0.76 and 0.721 and 0.57 |
| Cl.N[C@@H](CCC(=O)O)C(=O)O | 0.933 | 0.703 |
| COc1ccc([C@@H]2CC(=O)c3c(O)cc(OC4O[C@H](CO[C@H]5O[C@@H](C)[C@@H](O)[C@@H](O)[C@H]5O)[C@H](O)[C@H](O)[C@H]4O)cc3O2)cc1O (stereo partly specified) | 1.02 | 1.03 |
| CC(=O)O[C@@H]1C[C@H]2C(C)(C)C(=O)C=C[C@]2(C)[C@H]2CC[C@@]3(C)[C@H](c4ccoc4)OC(=O)[C@H]4O[C@]43[C@@]21C | 0.515 | 0.932 |
